Test results: a collection of fitness landscapes (doi:10.1126/science.1257360)
This is one part of the list.

B1: PhoQ; a variant is named by its letters at X, in order, P23837 (parent)
chain: MKKLLRLFFPLSLRVRFLLATAAVVLVLSLAYGMVALIGYSVSFDKTTFRLLRGESNLFYTLAKWENNKLHVELPENIDKQSPTMTLIYDENGQLLWAQRDVPWLMKMIQPDWLKSNGFHEIEADVNDTSLLLSGDHSIQQQLQEVREDDDDAEMTHSVAVNVYPATSRMPKLTIVVVDTIPVELKSSYMVWSWFIYVLSANLLLVIPLLWVAAWWSLRPIEALAKEVRELEEHNRELLNPATTRELTSLVRNLNRLLKSERERYDKYRTTLTDLTHSLKTPLXXLQXXLRSLRSEKMSVSDAEPVMLEQISRISQQIGYYLHRASMRGGTLLSRELHPVAPLLDNLTSALNKVYQRKGVNISLDISPEISFVGEQNDFVEVMGNVLDNACKYCLEFVEISARQTDEHLYIVVEDDGPGIPLSKREVIFDRGQRVDTLRPGQGVGLAVAREITEQYEGKIVAGESMLGGARMEVIFGRQHSAPKDE

Variants of: B1
Test: enrichment ratio after two sorts for PhoP signalling (ratio (wild type AVST 3.29)); higher = more functional
Settings: with PhoP (E. coli)

IQKG and FWVA cannot be ordered by enrichment ratio: ≤ 0.25 for the first, ≤ 0.25 for the second.

HMSE and KTCG cannot be ordered by enrichment ratio: ≤ 0.25 for the first, ≤ 0.25 for the second.

LWSR and NNQE cannot be ordered by enrichment ratio: ≤ 0.25 for the first, ≤ 0.25 for the second.

NPDK and FQTR cannot be ordered by enrichment ratio: ≤ 0.25 for the first, ≤ 0.25 for the second.

NTLY and VYQN cannot be ordered by enrichment ratio: ≤ 0.25 for the first, ≤ 0.25 for the second.

EEGS and QAQR cannot be ordered by enrichment ratio: ≤ 0.25 for the first, ≤ 0.25 for the second.

KMLK and ETTN cannot be ordered by enrichment ratio: ≤ 0.25 for the first, ≤ 0.25 for the second.

EYAC and PEPC cannot be ordered by enrichment ratio: ≤ 0.25 for the first, ≤ 0.25 for the second.

First: HESQ
Second: SGQS
The enrichment ratio of the first is lower: ≤ 0.25 for the first, 3.13 for the second.

First: GSIL
Second: IDTY
The enrichment ratio of the first is higher: 7.92 for the first, ≤ 0.25 for the second.

First: KFFG
Second: TTTE
The enrichment ratio of the first is lower: ≤ 0.25 for the first, 4.58 for the second.

QIKH and ALAP cannot be ordered by enrichment ratio: ≤ 0.25 for the first, ≤ 0.25 for the second.

AQKV and GIFC cannot be ordered by enrichment ratio: ≤ 0.25 for the first, ≤ 0.25 for the second.

RCGQ and RTMM cannot be ordered by enrichment ratio: ≤ 0.25 for the first, ≤ 0.25 for the second.

QKMG and ISQD cannot be ordered by enrichment ratio: ≤ 0.25 for the first, ≤ 0.25 for the second.

EPTY and LAKH cannot be ordered by enrichment ratio: ≤ 0.25 for the first, ≤ 0.25 for the second.

YYEI and IRPG cannot be ordered by enrichment ratio: ≤ 0.25 for the first, ≤ 0.25 for the second.

RTCM and KTHA cannot be ordered by enrichment ratio: ≤ 0.25 for the first, ≤ 0.25 for the second.

YQWE and NCHF cannot be ordered by enrichment ratio: ≤ 0.25 for the first, ≤ 0.25 for the second.

DPCD and KDQG cannot be ordered by enrichment ratio: ≤ 0.25 for the first, ≤ 0.25 for the second.

MIKA and MLDF cannot be ordered by enrichment ratio: ≤ 0.25 for the first, ≤ 0.25 for the second.

Compared with PCQW, SVYS is higher in enrichment ratio: ≤ 0.25 for the first, 0.435 for the second.

First: QDIF
Second: CTLV
The enrichment ratio of the first is lower: ≤ 0.25 for the first, 0.326 for the second.

DLNI and IIFE cannot be ordered by enrichment ratio: ≤ 0.25 for the first, ≤ 0.25 for the second.

IWKH and PKRI cannot be ordered by enrichment ratio: ≤ 0.25 for the first, ≤ 0.25 for the second.

RESF and WIML cannot be ordered by enrichment ratio: ≤ 0.25 for the first, ≤ 0.25 for the second.

MVIY and HKRG cannot be ordered by enrichment ratio: ≤ 0.25 for the first, ≤ 0.25 for the second.

KVTA and VECW cannot be ordered by enrichment ratio: ≤ 0.25 for the first, ≤ 0.25 for the second.

First: ELEI
Second: YCSH
The enrichment ratio of the first is lower: ≤ 0.25 for the first, 0.253 for the second.

IGPL and LQDS cannot be ordered by enrichment ratio: ≤ 0.25 for the first, ≤ 0.25 for the second.

NKAK and SCHL cannot be ordered by enrichment ratio: ≤ 0.25 for the first, ≤ 0.25 for the second.

YNWF and FHNL cannot be ordered by enrichment ratio: ≤ 0.25 for the first, ≤ 0.25 for the second.

FLQY and YKMR cannot be ordered by enrichment ratio: ≤ 0.25 for the first, ≤ 0.25 for the second.

FDAF and EDPV cannot be ordered by enrichment ratio: ≤ 0.25 for the first, ≤ 0.25 for the second.

ILAQ and QPNQ cannot be ordered by enrichment ratio: ≤ 0.25 for the first, ≤ 0.25 for the second.

First: TAAV
Second: SGYH
The enrichment ratio of the first is higher: 6.65 for the first, ≤ 0.25 for the second.

ERTG and NLSY cannot be ordered by enrichment ratio: ≤ 0.25 for the first, ≤ 0.25 for the second.

ITHS and ECSY cannot be ordered by enrichment ratio: ≤ 0.25 for the first, ≤ 0.25 for the second.

LETE and AFTI cannot be ordered by enrichment ratio: ≤ 0.25 for the first, ≤ 0.25 for the second.

HGTP and GSWC cannot be ordered by enrichment ratio: ≤ 0.25 for the first, ≤ 0.25 for the second.

FEAC and AYVW cannot be ordered by enrichment ratio: ≤ 0.25 for the first, ≤ 0.25 for the second.

FVPQ and FAEH cannot be ordered by enrichment ratio: ≤ 0.25 for the first, ≤ 0.25 for the second.

YSPA and DHVE cannot be ordered by enrichment ratio: ≤ 0.25 for the first, ≤ 0.25 for the second.

GDDN and SVND cannot be ordered by enrichment ratio: ≤ 0.25 for the first, ≤ 0.25 for the second.

MMHV and MNTG cannot be ordered by enrichment ratio: ≤ 0.25 for the first, ≤ 0.25 for the second.

NEVE and VTVR cannot be ordered by enrichment ratio: ≤ 0.25 for the first, ≤ 0.25 for the second.

PYMM and SFFG cannot be ordered by enrichment ratio: ≤ 0.25 for the first, ≤ 0.25 for the second.

NHDH and FAFD cannot be ordered by enrichment ratio: ≤ 0.25 for the first, ≤ 0.25 for the second.

LLDQ and SVFV cannot be ordered by enrichment ratio: ≤ 0.25 for the first, ≤ 0.25 for the second.

ELFR and DACK cannot be ordered by enrichment ratio: ≤ 0.25 for the first, ≤ 0.25 for the second.

DTHP and IIFS cannot be ordered by enrichment ratio: ≤ 0.25 for the first, ≤ 0.25 for the second.

NKFN and FRCQ cannot be ordered by enrichment ratio: ≤ 0.25 for the first, ≤ 0.25 for the second.

YPHC and QVWC cannot be ordered by enrichment ratio: ≤ 0.25 for the first, ≤ 0.25 for the second.

NGDA and FLYH cannot be ordered by enrichment ratio: ≤ 0.25 for the first, ≤ 0.25 for the second.

SKWN and KFTK cannot be ordered by enrichment ratio: ≤ 0.25 for the first, ≤ 0.25 for the second.

LARN and QLFM cannot be ordered by enrichment ratio: ≤ 0.25 for the first, ≤ 0.25 for the second.

FISH and YTFP cannot be ordered by enrichment ratio: ≤ 0.25 for the first, ≤ 0.25 for the second.

WMCR and WTHS cannot be ordered by enrichment ratio: ≤ 0.25 for the first, ≤ 0.25 for the second.

LCSP and FCCD cannot be ordered by enrichment ratio: ≤ 0.25 for the first, ≤ 0.25 for the second.

YLPA and RHNT cannot be ordered by enrichment ratio: ≤ 0.25 for the first, ≤ 0.25 for the second.

Compared with AKCF, RHWE is lower in enrichment ratio: 1.73 for the first, ≤ 0.25 for the second.

WGHR and KCKH cannot be ordered by enrichment ratio: ≤ 0.25 for the first, ≤ 0.25 for the second.

YYDE and LYGV cannot be ordered by enrichment ratio: ≤ 0.25 for the first, ≤ 0.25 for the second.

HCTI and NWII cannot be ordered by enrichment ratio: ≤ 0.25 for the first, ≤ 0.25 for the second.

ESEY and NYKS cannot be ordered by enrichment ratio: ≤ 0.25 for the first, ≤ 0.25 for the second.

ELGW and EGEI cannot be ordered by enrichment ratio: ≤ 0.25 for the first, ≤ 0.25 for the second.

Going from RVVT to SCIM, the enrichment ratio rises from ≤ 0.25 to 3.17.

YPSQ and FYDF cannot be ordered by enrichment ratio: ≤ 0.25 for the first, ≤ 0.25 for the second.

ALYA and EDNT cannot be ordered by enrichment ratio: ≤ 0.25 for the first, ≤ 0.25 for the second.

HETP and PVEA cannot be ordered by enrichment ratio: ≤ 0.25 for the first, ≤ 0.25 for the second.

WMKH and YCAP cannot be ordered by enrichment ratio: ≤ 0.25 for the first, ≤ 0.25 for the second.

NGPY and YQMV cannot be ordered by enrichment ratio: ≤ 0.25 for the first, ≤ 0.25 for the second.

HDFC and TVIL cannot be ordered by enrichment ratio: ≤ 0.25 for the first, ≤ 0.25 for the second.

TFQE and SQPE cannot be ordered by enrichment ratio: ≤ 0.25 for the first, ≤ 0.25 for the second.

SGYE and DFFA cannot be ordered by enrichment ratio: ≤ 0.25 for the first, ≤ 0.25 for the second.

MASP and HYMR cannot be ordered by enrichment ratio: ≤ 0.25 for the first, ≤ 0.25 for the second.

DPWP was tested, and the enrichment ratio was ≤ 0.25.
